These results are taken from paper PMC5876348.

Protein sequences, listed by entry. Tags and fused reporters are not part of them. Lines headed by an entry give the natural chain unless they say otherwise; changes in a name come on top. Chains listed by the source or under a name are the forms on record and can include a tag or linker. Residues count along the entry.
UniProt Q9Y294: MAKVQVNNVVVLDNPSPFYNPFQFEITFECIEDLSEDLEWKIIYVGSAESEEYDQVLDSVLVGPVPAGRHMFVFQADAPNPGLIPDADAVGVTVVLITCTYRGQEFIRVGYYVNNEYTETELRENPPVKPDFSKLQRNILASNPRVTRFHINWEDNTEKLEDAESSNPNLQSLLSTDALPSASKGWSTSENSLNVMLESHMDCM
FLAG-tagged ASF1A, first 30 amino acids of the N terminus (HeLa cells, Fig. 1g): residues 1-30 of Q9Y294
UniProt Q9NVP2: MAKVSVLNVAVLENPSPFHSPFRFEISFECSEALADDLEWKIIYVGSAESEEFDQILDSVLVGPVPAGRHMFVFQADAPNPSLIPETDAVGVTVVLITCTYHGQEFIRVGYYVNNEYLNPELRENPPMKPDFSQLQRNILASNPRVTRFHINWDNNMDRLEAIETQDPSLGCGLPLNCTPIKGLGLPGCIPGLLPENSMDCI

These are yes or no findings as the source states them, for the method shown. For some assays here: In cells and extracts the contact can be indirect. Some binding calls cover weakened binding; strength is not graded here. For some assays here: Tags and fused reporters may be left off the sequences shown.

For assay [1], the target named is T1, FLAG-GFP tagged full length USP52 (in HeLa cells) (human) (UniProt Q504Q3).
T1 sequence: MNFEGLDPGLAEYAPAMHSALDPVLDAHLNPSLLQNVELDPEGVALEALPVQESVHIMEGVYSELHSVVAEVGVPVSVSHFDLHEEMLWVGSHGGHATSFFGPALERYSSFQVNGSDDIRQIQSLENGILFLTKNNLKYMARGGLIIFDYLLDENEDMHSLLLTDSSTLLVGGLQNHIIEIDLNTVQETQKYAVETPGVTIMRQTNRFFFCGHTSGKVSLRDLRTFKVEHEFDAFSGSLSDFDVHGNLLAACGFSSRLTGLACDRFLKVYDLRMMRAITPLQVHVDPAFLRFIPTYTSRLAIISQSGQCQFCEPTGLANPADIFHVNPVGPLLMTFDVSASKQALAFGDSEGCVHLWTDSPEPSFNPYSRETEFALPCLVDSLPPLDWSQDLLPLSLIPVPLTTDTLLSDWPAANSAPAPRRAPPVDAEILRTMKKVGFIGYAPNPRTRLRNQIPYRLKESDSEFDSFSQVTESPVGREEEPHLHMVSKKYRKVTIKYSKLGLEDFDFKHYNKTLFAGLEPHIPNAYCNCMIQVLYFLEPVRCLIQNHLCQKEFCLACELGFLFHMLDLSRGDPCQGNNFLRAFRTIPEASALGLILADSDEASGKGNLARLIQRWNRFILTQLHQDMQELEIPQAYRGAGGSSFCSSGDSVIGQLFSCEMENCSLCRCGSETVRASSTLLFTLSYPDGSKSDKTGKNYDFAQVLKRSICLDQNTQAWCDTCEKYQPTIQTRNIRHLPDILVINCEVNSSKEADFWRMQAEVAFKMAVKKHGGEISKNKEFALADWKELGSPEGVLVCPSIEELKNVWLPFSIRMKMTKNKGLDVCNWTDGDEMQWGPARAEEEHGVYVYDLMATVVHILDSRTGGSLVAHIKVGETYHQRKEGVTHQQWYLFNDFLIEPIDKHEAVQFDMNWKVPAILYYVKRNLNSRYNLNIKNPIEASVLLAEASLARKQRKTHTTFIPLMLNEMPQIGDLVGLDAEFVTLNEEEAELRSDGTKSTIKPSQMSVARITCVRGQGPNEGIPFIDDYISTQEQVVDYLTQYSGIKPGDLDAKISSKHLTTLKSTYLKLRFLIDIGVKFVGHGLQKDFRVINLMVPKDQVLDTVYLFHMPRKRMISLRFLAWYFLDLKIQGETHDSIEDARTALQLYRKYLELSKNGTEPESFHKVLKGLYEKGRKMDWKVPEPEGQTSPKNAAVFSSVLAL
The assay is described as follows: co-IP; cellular lysates from HeLa cells expressing FLAG-GFP tagged full length or deletions of USP52, or FLAG-tagged full length or deletions of ASF1A.

Assay [2] addresses T2, USP52 (endogenous) (human (endogenous in HeLa or MCF-7)) (UniProt Q504Q3).
T2 sequence: T1 sequence
Briefly: co-IP; endogenous proteins, whole-cell lysates from HeLa or MCF-7 cells in NETN buffer (50 mM Tris-HCl pH 8.0, 150 mM NaCl, 0.2% Nonidet P-40, 2 mM EDTA), protein G magnetic beads, immunoblot; also HeLa cells released from double-thymidine block (association primarily in S phase).

Assay [3] deals with ASF1A (endogenous) (human (endogenous in HeLa or MCF-7)) (UniProt Q9Y294). Briefly: co-IP; cellular lysate of the nuclear compartment of MCF-7 cells.
For assay [4] the target is unchanged. The assay is described as follows: co-IP; cellular lysate of the cytosolic compartment of MCF-7 cells.
For assay [5], the target named is FLAG-ASF1A (HeLa cells stably expressing) (UniProt Q9Y294). The assay is described as follows: co-IP; association of USP52 with wild-type ASF1A and K to R mutants stably expressed in HeLa cells (Supplementary Fig. 3e).
In a further assay the target is FLAG-ASF1A K129R (UniProt Q9Y294). The description is as above.
A further assay has as its target FLAG-ASF1A K134R (UniProt Q9Y294). The assay is described as above.
The target in another assay is FLAG-ASF1A K159R (UniProt Q9Y294). Described as above.
For the next assay, the target named is FLAG-ASF1A K184R (UniProt Q9Y294). Described as above.
For the next assay, the target named is FLAG-ASF1A K3R (UniProt Q9Y294). The description is as above.
The target of the next assay is FLAG-ASF1A K41R (UniProt Q9Y294). Described as above.
Another assay concerns the target ASF1B (FLAG-tagged) (UniProt Q9NVP2). Briefly: co-IP; co-immunoprecipitation with FLAG-tagged Histone H3.1, Histone H3.3 or ASF1B (Supplementary Fig. 1a, 1b); cells not given.
Assay [6] deals with FLAG-tagged ASF1A, first 30 amino acids of the N terminus (HeLa cells, Fig. 1g) (UniProt Q9Y294). The assay is described as follows: co-IP; cellular lysates from HeLa cells expressing FLAG-GFP tagged full length or deletions of USP52, or FLAG-tagged full length or deletions of ASF1A.
In assay [7] the target is FLAG-tagged full length ASF1A (HeLa cells, Fig. 1g) (UniProt Q9Y294). Described as above.
The target in assay [8] is FLAG-ASF1A (HeLa cells stably expressing) (UniProt Q9Y294). Briefly: SEC; FLAG-ASF1A affinity eluate from HeLa cells stably expressing FLAG-ASF1A fractionated by FPLC on Superose 6 with high salt buffer; fractions immunoblotted. (In general: SEC sorts molecules by how far they enter the pores of the column.)
The target of assay [9] is ASF1A (endogenous) (human (endogenous in HeLa or MCF-7)) (UniProt Q9Y294). Briefly: co-IP; endogenous proteins, whole-cell lysates from HeLa or MCF-7 cells in NETN buffer (50 mM Tris-HCl pH 8.0, 150 mM NaCl, 0.2% Nonidet P-40, 2 mM EDTA), protein G magnetic beads, immunoblot; also HeLa cells released from double-thymidine block (association primarily in S phase). Background: A western blot detects proteins with antibodies after separation by electrophoresis.

Assay [10] has as its target GST fusion ASF1A, full length (UniProt Q9Y294). The assay is described as follows: pull-down; in vitro pull-down (Supplementary Fig. 1c, 1d); format not shown; taken as GST fusion from bacteria with in vitro transcribed/translated partner; only the target purified.

Regarding “ASF1A (endogenous) (from UniProt Q9Y294 1-204)”, the binding result in assay [1] and in [2] was “binds” each time.

B1: USP52 (endogenous) (enzyme, UniProt Q504Q3 1-1202)
chain: T1 sequence
On to B1, for which the binding entry in [3] is given as “no binding (condition: nuclear fraction of MCF-7 cells)”; in assay [4] it was “binds”; in [5], “binds”; in the assay with FLAG-ASF1A K129R, “binds”; with FLAG-ASF1A K134R, “binds”; in the assay with FLAG-ASF1A K159R, “binds”. In addition, the binding entry with FLAG-ASF1A K184R is “binds”; with FLAG-ASF1A K3R, “binds”; with FLAG-ASF1A K41R, “binds”; with ASF1B (FLAG-tagged), “no binding”; in assay [6], “binds”; in assay [7], “binds”. In addition, the binding entry in assay [8] and in assay [9] was “binds” in each case.

B2: full-length USP52 (FLAG-GFP-tagged, in vitro transcription/translation) (enzyme, UniProt Q504Q3 1-1202)
chain: T1 sequence
As to B2, in [10], the binding entry is on record as “binds”.
